# Test results published in the BET-seq Pho4 binding data (Le et al. 2018).
# Some of the results follow. Values were computed here from the reads of four pooled replicates and scatter widely.
# Molecular target: T1, Pho4 (S. cerevisiae) (UniProt P07270)
# T1 sequence: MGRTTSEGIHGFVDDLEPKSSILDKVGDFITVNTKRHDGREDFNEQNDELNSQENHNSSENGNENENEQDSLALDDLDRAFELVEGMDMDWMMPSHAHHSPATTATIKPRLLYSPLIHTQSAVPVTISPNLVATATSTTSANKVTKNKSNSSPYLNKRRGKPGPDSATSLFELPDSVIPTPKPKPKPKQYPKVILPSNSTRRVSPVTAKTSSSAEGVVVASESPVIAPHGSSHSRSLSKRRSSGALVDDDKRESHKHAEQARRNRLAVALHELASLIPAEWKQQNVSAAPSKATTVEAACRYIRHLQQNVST
# Assay: relative binding free energy (BET-seq); higher = weaker binding
# Conditions: reference: library average
row,Sequence,relative binding free energy
1,GGCTTCACGTGATTTA,0.44 kcal/mol
2,AAAAGCACGTGTGAAG,0.12 kcal/mol
3,GTTATCACGTGTAGCA,0.19 kcal/mol
4,CAGGACACGTGAGGTG,0.23 kcal/mol
5,GTTGACACGTGGGTCA,-0.17 kcal/mol
6,TTGAGCACGTGTTATT,-0.06 kcal/mol
7,TTGGTCACGTGGCCTG,0 kcal/mol
8,TGCGGCACGTGTATGT,-0.01 kcal/mol
9,CTTTACACGTGTAGTT,0.17 kcal/mol
10,CTCGGCACGTGTTAGT,-0.11 kcal/mol
11,GTCTTCACGTGTGTAA,0.28 kcal/mol
12,TGGTACACGTGGTCGA,-0.04 kcal/mol
13,AAGTTCACGTGTATAT,0.18 kcal/mol
14,CGGGGCACGTGTTAGC,-0.05 kcal/mol
15,TGGGTCACGTGTAATC,0.15 kcal/mol
16,GATCTCACGTGGGGTG,0.33 kcal/mol
17,TATAGCACGTGCTATG,-0.06 kcal/mol
18,TATTGCACGTGTTAGC,-0.09 kcal/mol
19,CGGAGCACGTGGGAAG,-0.05 kcal/mol
20,GAATGCACGTGACGGG,0.22 kcal/mol
21,GTGGGCACGTGTTTTG,0.04 kcal/mol
22,TTGTTCACGTGGCAGT,0.2 kcal/mol
23,TGCGGCACGTGGAAGG,-0.01 kcal/mol
24,TATGTCACGTGTGCGC,0.15 kcal/mol
25,TTTGTCACGTGAGCGT,0.18 kcal/mol
26,AGGATCACGTGCTGGA,0.23 kcal/mol

row,Sequence,relative binding free energy
1,TAGTGCACGTGTGAAT,0.02 kcal/mol
2,GTTGACACGTGTAGTA,0.19 kcal/mol
3,ACTGTCACGTGTTCTT,0.13 kcal/mol
4,GTTAGCACGTGGTTAG,-0.1 kcal/mol
5,GTTGACACGTGAGTTA,0.24 kcal/mol
6,TTTGCCACGTGATATT,0 kcal/mol
7,GTATGCACGTGTTGAA,0.1 kcal/mol
8,GGTCTCACGTGCGTGA,0.22 kcal/mol
9,GTTACCACGTGTTGGT,0.07 kcal/mol
10,GGTGGCACGTGACACG,0.05 kcal/mol
11,GTCGTCACGTGTAGGG,0 kcal/mol
12,GGAGGCACGTGAGTAC,0.19 kcal/mol
13,TGCTTCACGTGGGTCA,0.02 kcal/mol
14,CGGGTCACGTGAAGAG,0.44 kcal/mol
15,CTTGTCACGTGTGATA,0.02 kcal/mol
16,ATTGTCACGTGCGTGA,0 kcal/mol
17,AAATGCACGTGGTAAG,0.02 kcal/mol
18,GGAGGCACGTGGAGCA,-0.09 kcal/mol
19,GTAAGCACGTGATGGG,0.09 kcal/mol
20,AGGGGCACGTGGTGAA,-0.1 kcal/mol
21,ATAGACACGTGGTGAT,0.01 kcal/mol
22,GTATGCACGTGTGTAC,0.05 kcal/mol
23,CAGATCACGTGGGGGG,0.04 kcal/mol
24,GACGGCACGTGTGTTG,0.05 kcal/mol
25,TATTACACGTGGGTCT,-0.12 kcal/mol
26,GGGGGCACGTGTAATC,0.03 kcal/mol

row,Sequence,relative binding free energy
1,ATTGCCACGTGTGGAT,-0.1 kcal/mol
2,ATGGGCACGTGGTCTC,-0.13 kcal/mol
3,GGTGGCACGTGTTCGG,0 kcal/mol
4,TGAATCACGTGGTGTG,0.05 kcal/mol
5,TGTCACACGTGAAGGG,0.14 kcal/mol
6,AGTCGCACGTGGTGTC,-0.07 kcal/mol
7,CGGGCCACGTGGGGCA,-0.35 kcal/mol
8,CTTGGCACGTGTAGAG,-0.09 kcal/mol
9,AGTAGCACGTGTGAAA,0.19 kcal/mol
10,CCGGGCACGTGTGGGC,0.01 kcal/mol
11,TGGACCACGTGAGGGG,0.05 kcal/mol
12,CATGGCACGTGCTGTG,-0.12 kcal/mol
13,TGGAGCACGTGAAGTT,0 kcal/mol
14,GTGCGCACGTGGAGGC,-0.09 kcal/mol
15,ATTGTCACGTGAGTGT,0.2 kcal/mol
16,TGTGGCACGTGAAGGT,0.09 kcal/mol
17,AGGTACACGTGTCGTG,0.13 kcal/mol
18,GAGGTCACGTGATTGC,0.34 kcal/mol
19,GGTTGCACGTGTTATC,0.06 kcal/mol
20,CTGTGCACGTGGGAAT,0.01 kcal/mol
21,CGCGGCACGTGATGTT,-0.01 kcal/mol
22,AGAATCACGTGTCGGG,0.16 kcal/mol
23,GGTCTCACGTGCTTTG,0.25 kcal/mol
24,GTAAACACGTGTTGGT,-0.07 kcal/mol
25,TTTGTCACGTGATGTA,0.31 kcal/mol
26,GTCTTCACGTGTGTTC,0.38 kcal/mol

row,Sequence,relative binding free energy
1,TTGGACACGTGTGCTT,-0.05 kcal/mol
2,TAATGCACGTGTTGCT,-0.15 kcal/mol
3,TACTGCACGTGGTGGC,-0.1 kcal/mol
4,TGTTACACGTGGGGTC,0.1 kcal/mol
5,ATGGACACGTGTGTAC,0.08 kcal/mol
6,GGGTGCACGTGGGTGC,-0.08 kcal/mol
7,ATATGCACGTGAGTGC,0.11 kcal/mol
8,GTGGTCACGTGAATCG,0.36 kcal/mol
9,AGGGTCACGTGGTGCC,-0.01 kcal/mol
10,TTATTCACGTGAGAGG,0.46 kcal/mol
11,GTGGCCACGTGATGCG,0.14 kcal/mol
12,GGACACACGTGGGTTT,-0.12 kcal/mol
13,TGTGGCACGTGACGGA,-0.02 kcal/mol
14,TTTGACACGTGGTCTT,-0.09 kcal/mol
15,TTGGTCACGTGGCCGG,0.04 kcal/mol
16,TTTTGCACGTGTCCTG,0.2 kcal/mol
17,TGTCACACGTGGCTGT,0.05 kcal/mol
18,TGAGGCACGTGAGTAA,0.08 kcal/mol
19,TCTTACACGTGGGAGG,0.18 kcal/mol
20,TGTATCACGTGGAGAC,0.3 kcal/mol
21,CAGGTCACGTGTTATA,0.19 kcal/mol
22,AGAGGCACGTGTCGGG,-0.05 kcal/mol
23,GTTGTCACGTGATACG,0.23 kcal/mol
24,GCATTCACGTGGTAGT,0.2 kcal/mol
25,TCTGTCACGTGGCTGA,0.16 kcal/mol
26,ATGGGCACGTGATTAG,-0.08 kcal/mol

row,Sequence,relative binding free energy
1,GGTTGCACGTGTTGTC,-0.06 kcal/mol
2,TAGTTCACGTGGCGCG,0.35 kcal/mol
3,AAGATCACGTGGAGTT,0.15 kcal/mol
4,TTAAACACGTGTTGTT,-0.06 kcal/mol
5,GAGGGCACGTGGTTGG,-0.07 kcal/mol
6,TGGAACACGTGATGTT,0.26 kcal/mol
7,TGGATCACGTGAAATG,0.25 kcal/mol
8,TTAGGCACGTGTTAGT,-0.09 kcal/mol
9,TTTGTCACGTGAATTG,0.33 kcal/mol
10,TTCGGCACGTGTCGGT,0.1 kcal/mol
11,AAGGTCACGTGTGAAA,0.18 kcal/mol
12,TAAAACACGTGAGGTT,0.26 kcal/mol
13,TGAGCCACGTGTGGAG,-0.04 kcal/mol
14,AATTGCACGTGCAGGG,0.03 kcal/mol
15,AGGAGCACGTGTTGGA,-0.01 kcal/mol
16,TGAGACACGTGGAAGG,-0.01 kcal/mol
17,TTTAACACGTGATCAT,0.12 kcal/mol
18,GGTTACACGTGGGGAG,0.06 kcal/mol
19,CGTGCCACGTGGGTGC,-0.16 kcal/mol
20,CTTATCACGTGTTGTG,0.09 kcal/mol
21,TCCGTCACGTGTTTGG,0 kcal/mol
22,TTTAGCACGTGTAGTA,0.02 kcal/mol
23,CGTAGCACGTGTCTTG,0.05 kcal/mol
24,TATTCCACGTGTTATG,0.13 kcal/mol
25,TATACCACGTGTGGGT,0.03 kcal/mol
26,GCGTACACGTGGGCGG,-0.1 kcal/mol

row,Sequence,relative binding free energy
1,GTAGGCACGTGCCGGT,-0.1 kcal/mol
2,GGTGGCACGTGACGAG,0.15 kcal/mol
3,GACTTCACGTGGTGGT,0.27 kcal/mol
4,GTTGTCACGTGTGGCA,0.2 kcal/mol
5,AGTAGCACGTGTTATA,-0.08 kcal/mol
6,ATGTTCACGTGACGGT,0.18 kcal/mol
7,AGTAGCACGTGGTCAG,-0.14 kcal/mol
8,GTATTCACGTGTGTCA,0.23 kcal/mol
9,GGATACACGTGTGCGT,-0.03 kcal/mol
10,GAATTCACGTGAGTAG,0.46 kcal/mol
11,TATGTCACGTGTGGCT,0.1 kcal/mol
12,ATGTTCACGTGGCGTG,0.06 kcal/mol
13,GGGGTCACGTGATCGG,0.2 kcal/mol
14,AAGTGCACGTGGGGAT,-0.13 kcal/mol
15,GTGGTCACGTGTTGTG,0.12 kcal/mol
16,GGGGTCACGTGGGGCG,0.08 kcal/mol
17,AAAGTCACGTGTTTGC,0.15 kcal/mol
18,GGCGTCACGTGGGCCG,-0.05 kcal/mol
19,GTGCGCACGTGTAGTG,-0.09 kcal/mol
20,TCGCTCACGTGTATGG,0.28 kcal/mol
21,TAAGTCACGTGGTGTT,0 kcal/mol
22,GCTGGCACGTGAAGGT,0.21 kcal/mol
23,CGATTCACGTGGTGGC,0.3 kcal/mol
24,AGAGTCACGTGTCGAG,0.09 kcal/mol
25,ATCGTCACGTGGGACG,0.08 kcal/mol
26,CAGGTCACGTGGGGCG,0 kcal/mol

row,Sequence,relative binding free energy
1,GTCATCACGTGTAGTG,0.17 kcal/mol
2,TCCTGCACGTGGGGGT,-0.3 kcal/mol
3,TGTAACACGTGGTAAG,-0.05 kcal/mol
4,CGTAACACGTGGTCGT,0.08 kcal/mol
5,TGTTACACGTGGGCGC,-0.03 kcal/mol
6,ATGTGCACGTGCTTTA,-0.1 kcal/mol
7,GGGGGCACGTGTCATT,-0.03 kcal/mol
8,ATACTCACGTGTGTTG,0.18 kcal/mol
9,GCTAGCACGTGAGGGT,0.22 kcal/mol
10,TTCCGCACGTGGTTTA,-0.11 kcal/mol
11,AGAAACACGTGTTGAG,0.1 kcal/mol
12,GGCTGCACGTGAGTTG,0.22 kcal/mol
13,TGAAACACGTGTGGGT,0.09 kcal/mol
14,TAGTGCACGTGGTCCT,-0.16 kcal/mol
15,GGAGCCACGTGGGTTT,0.05 kcal/mol
16,TGTTCCACGTGGTTTC,0.11 kcal/mol
17,GTATGCACGTGCTATG,0.03 kcal/mol
18,AGTGTCACGTGTTATA,-0.07 kcal/mol
19,GTTAACACGTGGAGCG,0.07 kcal/mol
20,ACTTACACGTGTGTGG,0.03 kcal/mol
21,TTGTACACGTGATTAC,0.21 kcal/mol
22,AAGGCCACGTGTTGGT,-0.09 kcal/mol
23,CTTGTCACGTGATTCT,0.21 kcal/mol
24,ATTGGCACGTGAACTA,0.15 kcal/mol
25,GCTGGCACGTGTAAGA,0.18 kcal/mol
26,TGTGTCACGTGCCGGG,0.14 kcal/mol

row,Sequence,relative binding free energy
1,TGTTCCACGTGGTAAT,-0.06 kcal/mol
2,AAGAGCACGTGAAAGG,0.24 kcal/mol
3,ATGGACACGTGAATGT,0.18 kcal/mol
4,GCTTACACGTGGGTTA,-0.07 kcal/mol
5,GGTTGCACGTGTGTTG,0.26 kcal/mol
6,ACTAGCACGTGAGGGG,0.16 kcal/mol
7,TGGTGCACGTGCATGG,-0.15 kcal/mol
8,TTCTTCACGTGATGCG,0.31 kcal/mol
9,GTACGCACGTGGGTGT,-0.19 kcal/mol
10,TAGTACACGTGGGCGG,-0.05 kcal/mol
11,CCAGTCACGTGTGTGG,0.11 kcal/mol
12,GATCTCACGTGTGGGA,0.19 kcal/mol
13,TAGATCACGTGGTCGT,-0.04 kcal/mol
14,AGTTTCACGTGGCGGC,0.26 kcal/mol
15,GGCTACACGTGGGGTC,-0.06 kcal/mol
16,CAGTTCACGTGTTTGA,0.11 kcal/mol
17,ATTATCACGTGATGTG,0.19 kcal/mol
18,ATGTTCACGTGGTGTC,0.24 kcal/mol
19,GTTTACACGTGGGCAT,-0.06 kcal/mol
20,TTTCTCACGTGTAGCT,0.24 kcal/mol
21,TTAATCACGTGGTCTT,0.05 kcal/mol
22,TTTAGCACGTGTCGTC,-0.02 kcal/mol
23,CTAGTCACGTGGTAGG,0 kcal/mol
24,GTGGTCACGTGGGCAA,0 kcal/mol
25,TAATACACGTGGTGAA,0.09 kcal/mol
26,TAAGGCACGTGGAGGG,-0.23 kcal/mol

row,Sequence,relative binding free energy
1,GGGTACACGTGGGCGA,-0.11 kcal/mol
2,TCTTGCACGTGTGTGC,0.12 kcal/mol
3,AGTAGCACGTGAATTG,0.14 kcal/mol
4,CTTTACACGTGGTGAA,0.07 kcal/mol
5,GTTCGCACGTGGGCGG,-0.23 kcal/mol
6,ATTGACACGTGGTTAG,-0.14 kcal/mol
7,TGATGCACGTGATTAA,0.16 kcal/mol
8,CTGATCACGTGATTTT,0.28 kcal/mol
9,TGCTGCACGTGTTTAT,-0.02 kcal/mol
10,TTTTGCACGTGGCAGG,-0.08 kcal/mol
11,TTAAGCACGTGTCTGT,-0.09 kcal/mol
12,AGTTTCACGTGCTTTG,0.34 kcal/mol
13,GCTGGCACGTGTATAT,-0.01 kcal/mol
14,TGCTACACGTGGGAGT,0.03 kcal/mol
15,TTATTCACGTGATATT,0.29 kcal/mol
16,ATACGCACGTGGGTTA,-0.17 kcal/mol
17,GGGTTCACGTGGGCTA,0.31 kcal/mol
18,TTGGTCACGTGGTCCA,0.04 kcal/mol
19,CGTGTCACGTGATGAG,0.19 kcal/mol
20,CGGTGCACGTGGGTTG,-0.21 kcal/mol
21,TGTTCCACGTGATAGT,0.07 kcal/mol
22,TGGATCACGTGGTTAT,0.15 kcal/mol
